Here are results for 79 compounds from the supplement of paper PMC10670038.

Where a name gives a salt, the structure may show the parent alone. ± gives the standard deviation of the averaged measurements. The full ranking holds about 2,000 compounds; the median of “relative cell viability vs DMSO, compound + 0.2 uM CuET” is about 1, and the lowest 2% start at about 0.25. The list shows a part of the results.

For this assay, the system named is TE10. Description: relative cell viability vs DMSO, compound + 0.2 uM CuET (fraction); TE10 is an esophageal squamous carcinoma line; higher = less cytotoxic. The conditions noted are these: 2 µM; co-treatment: CuET (bis(diethyldithiocarbamate)copper) 0.2 uM; 48 h. The procedure: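 TE10 ESCC cells (1,000/well, 384-well plates) were treated with Selleck bioactive library compounds at 2 uM combined with 0.2 uM CuET (copper diethyldithiocarbamate) for 48 h. Viability was read by CellTiter-Glo and expressed relative to DMSO wells. Two technical replicates (A, B).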
Take `C[C@H]1O[C@@H](Oc2c(-c3cc(O)c(O)c(O)c3)oc3cc(O)cc(O)c3c2=O)[C@@H](O)[C@@H](O)[C@@H]1O` [Myricitrin]: the relative cell viability is 1.05 ± 0.1.

Regarding `Cc1ccc2c(=O)c3cccc(CC(=O)O)c3oc2c1C` [DMXAA (Vadimezan)], the relative cell viability was 1.02 ± 0.035.

On to `CC(=O)[C@H]1CC[C@H]2[C@@H]3CC=C4C[C@@H](O)CC[C@]4(C)[C@H]3CC[C@]12C` [Pregnenolone], for which the relative cell viability turned out to be 1.05 ± 0.11.

Take `COc1ccc(CC2c3cc(OC)c(OC)cc3CC[N+]2(C)CCC(=O)OCCCCCOC(=O)CC[N+]2(C)CCc3cc(OC)c(OC)cc3C2Cc2ccc(OC)c(OC)c2)cc1OC` (centres undefined) [Atracurium Besylate]: the relative cell viability was 0.724 ± 0.024.

As for `CN(C)c1ccc(C(=C2C=CC(=[N+](C)C)C=C2)c2ccc(N(C)C)cc2)cc1` [Crystal Violet], the relative cell viability is 0.308 ± 0.029.

On to `CC(C(=O)O)c1ccc2c(c1)CC(=O)c1ccccc1S2` (centres undefined) [Zaltoprofen], for which the relative cell viability worked out at 0.452 ± 0.49.

For the compound `Oc1cc2c(cc1O)[C@@H]1c3ccc(O)c(O)c3OC[C@]1(O)C2` [Hematoxylin], the relative cell viability was determined as 1.02 ± 0.17.

As for `Cc1nc(-c2ccc(OCC(C)C)c(C#N)c2)sc1C(=O)O` [Febuxostat], the relative cell viability was determined as 1.01 ± 0.081.

Turning to `Cc1cc(Nc2nc(N[C@@H](C)c3ccc(F)cc3)c(C#N)cc2F)n[nH]1`, the relative cell viability was found to be 0.88387 ± 0.00071.

For `Cc1nc(Nc2ncc(C(=O)Nc3c(C)cccc3Cl)s2)cc(N2CCN(CCO)CC2)n1` [Dasatinib Monohydrate], the relative cell viability is 1.06 ± 0.12.

As for `Cc1nc(Nc2ncc(C(=O)Nc3c(C)cccc3Cl)s2)cc(N2CCN(CCO)CC2)n1` [Dasatinib], the relative cell viability came to 1.19 ± 0.016.

Regarding `COc1cc(N2CCC(N3CCN(C)CC3)CC2)ccc1Nc1ncnc(Nc2ccccc2S(=O)(=O)C(C)C)n1`, the relative cell viability is 1.1 ± 0.052.

Take `CCOC(=O)c1c(CSc2ccccc2)n(C)c2cc(Br)c(O)c(CN(C)C)c12` [Arbidol HCl]: the relative cell viability turned out to be 0.778 ± 0.12.

For the compound `CCN1CCN(Cc2ccc(-c3cc4c(N[C@H](C)c5ccccc5)ncnc4[nH]3)cc2)CC1`, the relative cell viability was 1.11 ± 0.1.

In the case of `COc1cc([C@@H]2c3cc4c(cc3[C@@H](O[C@@H]3O[C@@H]5CO[C@@H](c6cccs6)O[C@H]5[C@H](O)[C@H]3O)[C@H]3COC(=O)[C@H]23)OCO4)cc(OC)c1O` [Teniposide], the relative cell viability came to 0.661 ± 0.023.

With `O=c1[nH]cnc2c1ncn2[C@@H]1O[C@H](CO)[C@@H](O)[C@H]1O` [Inosine], the relative cell viability worked out at 1.05 ± 0.041.

On to `CCOc1ccccc1OC(c1ccccc1)C1CNCCO1` (centres undefined) [Reboxetine mesylate], for which the relative cell viability was found to be 1.2 ± 0.37.

In the case of `O=C1NC(=O)/C(=C/c2ccc3c(c2)OC(F)(F)O3)S1`, the relative cell viability was found to be 0.434 ± 0.49.

As to `Nc1ccc(C(=O)Nc2cccc(-c3nc(N4CCOCC4)c4oc5ncccc5c4n3)c2)cn1`, the relative cell viability was 0.352 ± 0.019.

Turning to `CN(C)CCCN1c2ccccc2Sc2ccc(Cl)cc21` [Chlorpromazine HCl], the relative cell viability amounted to 0.951 ± 0.033.

For the compound `Cc1nc(-c2cccnc2)sc1C(=O)Nc1ccccc1-c1cn2c(CN3CCOCC3)csc2n1`, the relative cell viability amounted to 1.17 ± 0.019.

For `O=c1ccc2ccccc2o1` [Coumarin], the relative cell viability stood at 1.1 ± 0.068.

In the case of `Cc1[nH]c2ccccc2c1CCNCc1ccc(/C=C/C(=O)NO)cc1` [Panobinostat (LBH589)], the relative cell viability was 0.151 ± 0.0045.

In the case of `Cc1cc(C)c(S(=O)(=O)n2cc(C)cc2C)c(C)c1`, the relative cell viability is 1.01 ± 0.095.

For the compound `O=C(O)[C@H]1O[C@@H](Oc2cc3oc(-c4ccccc4)cc(=O)c3c(O)c2O)[C@H](O)[C@@H](O)[C@@H]1O` [Baicalin], the relative cell viability is 0.848 ± 0.058.

For `Cn1cc(-c2ccncc2)c(-c2ccc(OCc3ccc4ccccc4n3)cc2)n1`, the relative cell viability was found to be 0.844 ± 0.14.

Take `O=C1C(=O)c2ccccc2C(O)=C1C1CCC(c2ccc(Cl)cc2)CC1` (centres undefined) [Atovaquone]: the relative cell viability worked out at 1.12 ± 0.054.

Turning to `COC1CCN(C(=O)c2cc(Cc3n[nH]c(=O)c4ccccc34)ccc2F)CC1`, the relative cell viability was determined as 1.28 ± 0.036.

For `c1cncc(CN2CCC(n3ncc4c(N5CCOCC5)nc(-c5ccc6[nH]ccc6c5)nc43)CC2)c1`, the relative cell viability is 0.835 ± 0.053.

With `CCOC(=O)c1ccc(N)cc1` [Benzocaine], the relative cell viability was 1.2 ± 0.036.

As to `CCN(CC)CCOC(=O)C(c1ccccc1)c1ccccc1` [Adiphenine HCl], the relative cell viability came out at 1.02 ± 0.1.

With `OC(CCCN1CCCCC1)(c1ccccc1)c1ccccc1` [Diphenidol HCl], the relative cell viability came out at 1.05 ± 0.025.

Take `CCCCCCCCCCCCc1ccc(S(=O)(=O)Nc2nncs2)cc1`: the relative cell viability was 1.15 ± 0.021.

Consider `Cc1ncc(Cl)cc1NCc1ccc(C(=O)N[C@@H](CC2CCCC2)C(=O)NC2CC2)s1`, for which the relative cell viability amounted to 1.19 ± 0.051.

Consider `COc1cc(C(C)=O)ccc1O` [Apocynin], for which the relative cell viability worked out at 1.13 ± 0.016.

For the compound `CCOc1ccc2nc3cc(N)ccc3c(N)c2c1` [Ethacridine lactate monohydrate], the relative cell viability amounted to 0.915 ± 0.038.

Consider `CN(Cc1cnc2nc(N)nc(N)c2n1)c1ccc(C(=O)N[C@@H](CCC(=O)O)C(=O)O)cc1` [Methotrexate], for which the relative cell viability stood at 0.404 ± 0.018.

In the case of `Nc1cc(F)ccc1NC(=O)/C=C/c1cnn(C/C=C/c2ccccc2)c1`, the relative cell viability was found to be 1.01 ± 0.024.

With `NC(N)=Nc1nc(CSCC/C(N)=N/S(N)(=O)=O)cs1` [Famotidine], the relative cell viability is 1.03 ± 0.038.

Consider `CC1=C(/C=C/C(C)=C/C=C/C(C)=C\C(=O)O)C(C)(C)CCC1` [Isotretinoin], for which the relative cell viability was determined as 0.854 ± 0.33.

Turning to `CC/C(=C(/CC)c1ccc(O)cc1)c1ccc(O)cc1` [Diethylstilbestrol], the relative cell viability was 1.16 ± 0.024.

Turning to `CC(C)c1cc2c(N3CCN(C4=NCC(C)(C)S4)CC3)ncnc2s1` [MI-3 (Menin-MLL Inhibitor)], the relative cell viability is 0.972 ± 0.023.

For the compound `COc1cc(OC)c(/C=C/S(=O)(=O)Cc2ccc(OC)c(NCC(=O)O)c2)c(OC)c1`, the relative cell viability was determined as 0.604 ± 0.066.

`OC(CN1CCN(c2cccc(Cl)c2)CC1)C(c1ccccc1)c1ccccc1` (centres undefined): the relative cell viability stood at 0.759 ± 0.22.

For `COc1ccc(-c2ccc3c(N4CCOCC4)nc(N4C[C@@H](C)O[C@@H](C)C4)nc3n2)cc1CO`, the relative cell viability was found to be 0.537 ± 0.22.

Turning to `O=c1[nH]c(=O)n([C@H]2C[C@H](O)[C@@H](CO)O2)cc1Br` [Bromodeoxyuridine (BrdU)], the relative cell viability was 0.956 ± 0.16.

As to `COc1cc(NC(C)CCCN)c2ncccc2c1` (centres undefined) [Primaquine Diphosphate], the relative cell viability turned out to be 1.02 ± 0.026.

Turning to `Cc1ccc([N+](=O)[O-])cc1S(=O)(=O)N(C)/N=C/c1cnc2ccc(Br)cn12`, the relative cell viability stood at 0.507 ± 0.015.

`CCCCCCCc1ccc(CCc2cccc(O)c2C(=O)O)cc1`: the relative cell viability worked out at 1.17 ± 0.14.

Turning to `CCN(CC)CCCCNc1ncc2cc(-c3cc(OC)cc(OC)c3)c(NC(=O)NC(C)(C)C)nc2n1`, the relative cell viability came out at 1.28 ± 0.097.

Take `CC[C@@H](CO)NCCN[C@@H](CC)CO` [Ethambutol HCl]: the relative cell viability worked out at 1.17 ± 0.17.

`C=CS(=O)(=O)NC1CCN(C(=O)CNc2cc(I)c(Cl)cc2OC)CC1` [K-Ras(G12C) inhibitor 9]: the relative cell viability is 0.699 ± 0.08.

With `CCCOc1ccc(C(=O)OCCN(CC)CC)cc1N` [Proparacaine HCl], the relative cell viability was found to be 0.95 ± 0.092.

In the case of `C#C[C@]1(O)CC[C@H]2[C@@H]3CCC4=CC(=O)CC[C@@H]4[C@H]3CC[C@@]21CC` [Levonorgestrel], the relative cell viability worked out at 1.13 ± 0.095.

`Cn1cc(-c2ccc3c(c2)CCN3C(=O)Cc2cccc(C(F)(F)F)c2)c2c(N)ncnc21`: the relative cell viability is 0.897 ± 0.087.

As to `Oc1cccc(-c2nc(N3CCOCC3)c3oc4ncccc4c3n2)c1`, the relative cell viability was determined as 0.59 ± 0.098.

On to `CC(=O)OCC(=O)[C@H]1CC[C@H]2[C@@H]3CCC4=CC(=O)CC[C@]4(C)[C@H]3CC[C@]12C` [Deoxycorticosterone acetate], for which the relative cell viability was found to be 1.16 ± 0.14.

As for `C[C@@H]1COC(Nc2ccc3ncnc(Nc4ccc(OCc5nccs5)c(Cl)c4)c3c2)=N1` [Varlitinib], the relative cell viability turned out to be 1.04 ± 0.086.

As for `O=C(/C=C/c1ccc(O)c(O)c1)O[C@@H]1C[C@](O)(C(=O)O)C[C@@H](O)[C@H]1O` [Chlorogenic Acid], the relative cell viability is 1.1 ± 0.11.

In the case of `CN(C)CC/C=C1/c2ccccc2COc2ccc(CC(=O)O)cc21` [Olopatadine HCl], the relative cell viability was determined as 1.06 ± 0.1.

Regarding `c1ccc(CN(CC2=NCCN2)c2ccccc2)cc1` [Antazoline HCl], the relative cell viability is 1.01 ± 0.14.

Regarding `CN(C)Cc1ccc(S(=O)(=O)n2ccc(/C=C/C(=O)NO)c2)cc1` [Resminostat], the relative cell viability is 0.848 ± 0.19.

For the compound `CCn1cc(NC(=S)Nc2cc(Cl)ccc2OC)c(C(N)=O)n1`, the relative cell viability stood at 1.25 ± 0.023.

On to `CC[C@H](C)C[C@H](C)CCCCCCCCC(=O)N[C@H]1C[C@@H](O)[C@@H](NCCN)NC(=O)[C@@H]2[C@@H](O)CCN2C(=O)[C@H]([C@H](O)CCN)NC(=O)[C@H]([C@H](O)[C@@H](O)c2ccc(O)cc2)NC(=O)[C@@H]2C[C@@H](O)CN2C(=O)[C@H]([C@@H](C)O)NC1=O` [Caspofungin Acetate], for which the relative cell viability was determined as 1.23 ± 0.25.

Turning to `Nc1ncnc2n[nH]c(Nc3ccc(F)cc3)c12`, the relative cell viability is 1.08 ± 0.1.

As for `Cc1ccc(-n2nc(C(C)(C)C)cc2NC(=O)Nc2ccc(OCCN3CCOCC3)c3ccccc23)cc1` [BIRB 796 (Doramapimod)], the relative cell viability was found to be 1.16 ± 0.089.

Take `CCCCCCCCCCCC[N+](C)(C)CCOc1ccccc1` [Domiphen Bromide]: the relative cell viability is 1.04 ± 0.12.

Consider `CNC(=O)c1ccc(C)c(-n2c(C)cc(OCc3ccc(F)cc3F)c(Br)c2=O)c1`, for which the relative cell viability turned out to be 1.36 ± 0.089.

As for `Cc1cc(OCc2nnc(SC3CCCC3)n2-c2cccnc2)ccc1-c1ccc(S(C)(=O)=O)cc1`, the relative cell viability is 0.771 ± 0.067.

For `CC(C)(O)c1ccccc1CC[C@@H](SCC1(CC(=O)O)CC1)c1cccc(/C=C/c2ccc3ccc(Cl)cc3n2)c1` [Montelukast Sodium], the relative cell viability worked out at 1.088 ± 0.0034.

On to `O=C1NC(=O)C(c2ccccc2)(c2ccccc2)N1` [Phenytoin], for which the relative cell viability was found to be 0.981 ± 0.16.

In the case of `O=C1NC(=O)C(=Cc2ccc(-c3ccc(F)cc3)o2)S1` (stereo in doubt), the relative cell viability came to 0.489 ± 0.49.

Turning to `CN(C)C/C=C/C(=O)Nc1cc2c(Nc3ccc(F)c(Cl)c3)ncnc2cc1O[C@H]1CCOC1` [Afatinib (BIBW2992) Dimaleate], the relative cell viability came to 0.701 ± 0.038.

Take `CN(C)C/C=C/C(=O)Nc1cc2c(Nc3ccc(F)c(Cl)c3)ncnc2cc1O[C@H]1CCOC1` [Afatinib (BIBW2992)]: the relative cell viability came to 0.765 ± 0.04.

As to `OC[C@@H](O)[C@@H](O)[C@@H](O)CO` [Ribitol], the relative cell viability stood at 0.99 ± 0.056.

Take `O=C(Nc1ccccc1)Nc1ccc(-c2ccc(C(=O)[C@@H]3CCC[C@H]3C(=O)O)cc2)cc1`: the relative cell viability was determined as 0.806 ± 0.08.

Turning to `O=C(NOCC(O)CO)c1cc(Br)c(F)c(F)c1Nc1ccc(I)cc1F` (centres undefined), the relative cell viability was 0.92 ± 0.085.

On to `CN(C)CC(c1ccc(O)cc1)C1(O)CCCCC1` (centres undefined) [Desvenlafaxine Succinate], for which the relative cell viability was found to be 1.28 ± 0.032.

For the compound `CN(C)CC(c1ccc(O)cc1)C1(O)CCCCC1` (centres undefined) [Desvenlafaxine], the relative cell viability is 1.09 ± 0.057.
